# Measurements published in the supplement of paper PMC8728848.
# The other results are listed elsewhere or left out.
# B1: SP15308A-bot-339-19-339 (Bacteroides ovatus) (protein)
# chain: ACNNEWEDEQYEQYISFKSPIPAGGEGVTDIYVRYKEDGKVTYRLPIVVSGSTTNTLDREVHIAVDKDTLETLNIERFSIHRPGLWYTALEEDKYDFPKTVHISAGSSVEQLNIDFNLQGIDMLEKWVLPLTIVDDPSYNYKSHPRKNYAKALLRVIPFNNYSGSYTSSAMKVYTYINGKPDTNARTANKRTGYVINDNTVFFYAGLISEDLDKEVREKYKINVHFNEDGTLHMEQGDPTNKMKFELIGTPTYSKTSVMDATRPYLERRYVQIMFEYDFEDFSYGGNGVDVIPIKYKVEGSMTLQRNINTQIPDEDQQIEW
# Legend:
# Assay in all cases: glycan array binding signal (z-score within array); higher = stronger binding
# Settings in all cases: glycan notation: IUPAC condensed, linker removed
# [1] = molecular target: Fuc(a1-2)Gal
# Outline: (§1)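 Arrays were curated from the Consortium for Functional Glycomics database, 3228 in total, and kept only where the protein sequence was available. Binding is expressed as a within-array Z-score. This score was averaged across arrays of the same protein sequence at different concentrations or buffers and across linkers, and negative values can be read as non-binding.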
# [2] = molecular target: Fuc(a1-2)Gal(b1-3)GalNAc
# Outline: as §1
# [3] = molecular target: Fuc(a1-2)Gal(b1-3)GalNAc(a1-3)[Fuc(a1-2)]Gal(b1-4)Glc
# Outline: as §1
# [4] = molecular target: Fuc(a1-2)Gal(b1-3)GalNAc(a1-3)[Fuc(a1-2)]Gal(b1-4)GlcNAc
# Outline: as §1
# [5] = molecular target: Fuc(a1-2)Gal(b1-3)GalNAc(b1-3)Gal
# Outline: as §1
# [6] = molecular target: Fuc(a1-2)Gal(b1-3)GalNAc(b1-3)Gal(a1-4)Gal(b1-4)Glc
# Outline: as §1
# [7] = molecular target: Fuc(a1-2)Gal(b1-3)GalNAc(b1-4)[Neu5Ac(a2-3)]Gal(b1-4)Glc
# Outline: as §1
# [8] = molecular target: Fuc(a1-2)Gal(b1-3)GlcNAc
# Outline: as §1
# [9] = molecular target: Fuc(a1-2)Gal(b1-3)GlcNAc(b1-2)Man(a1-3)[Fuc(a1-2)Gal(b1-3)GlcNAc(b1-2)Man(a1-6)]Man(b1-4)GlcNAc(b1-4)GlcNAc
# Outline: as §1
# [10] = molecular target: Fuc(a1-2)Gal(b1-3)GlcNAc(b1-2)Man(a1-3)[Fuc(a1-2)Gal(b1-3)GlcNAc(b1-2)Man(a1-6)]Man(b1-4)GlcNAc(b1-4)[Fuc(a1-6)]GlcNAc
# Outline: as §1
# [11] = molecular target: Fuc(a1-2)Gal(b1-3)GlcNAc(b1-3)Gal(b1-4)Glc
# Outline: as §1
# [12] = molecular target: Fuc(a1-2)Gal(b1-3)GlcNAc(b1-3)GalNAc
# Outline: as §1
# [13] = molecular target: Fuc(a1-2)Gal(b1-3)GlcNAc(b1-3)[Fuc(a1-2)Gal(b1-3)GlcNAc(b1-6)]GalNAc
# Outline: as §1
# [14] = molecular target: Fuc(a1-2)Gal(b1-3)GlcNAc(b1-3)[Gal(b1-4)GlcNAc(b1-6)]Gal(b1-4)Glc
# Outline: as §1
# [15] = molecular target: Fuc(a1-2)Gal(b1-3)GlcNAc(b1-3)[Neu5Ac(a2-6)Gal(b1-4)GlcNAc(b1-6)]Gal(b1-4)Glc
# Outline: as §1
# [16] = molecular target: Fuc(a1-2)Gal(b1-3)GlcNAc6S
# Outline: as §1
# [17] = molecular target: Fuc(a1-2)Gal(b1-3)[Fuc(a1-4)]GlcNAc
# Outline: as §1
# [18] = molecular target: Fuc(a1-2)Gal(b1-3)[Fuc(a1-4)]GlcNAc(b1-2)Man(a1-3)[Fuc(a1-2)Gal(b1-3)[Fuc(a1-4)]GlcNAc(b1-2)Man(a1-3)]Man(b1-4)GlcNAc(b1-4)GlcNAc
# Outline: as §1
# [19] = molecular target: Fuc(a1-2)Gal(b1-3)[Fuc(a1-4)]GlcNAc(b1-2)Man(a1-3)[Fuc(a1-2)Gal(b1-3)[Fuc(a1-4)]GlcNAc(b1-2)Man(a1-6)]Man(b1-4)GlcNAc(b1-4)[Fuc(a1-6)]GlcNAc(b1-4)[Fuc(a1-6)]GlcNAc
# Outline: as §1
# [20] = molecular target: Fuc(a1-2)Gal(b1-3)[Fuc(a1-4)]GlcNAc(b1-3)[Fuc(a1-3)[Gal(b1-4)]GlcNAc(b1-6)]Gal(b1-4)Glc
# Outline: as §1
# [21] = molecular target: Fuc(a1-2)Gal(b1-3)[Fuc(a1-4)]GlcNAc(b1-3)[Gal(b1-4)GlcNAc(b1-6)]Gal(b1-4)Glc
# Outline: as §1
# [22] = molecular target: Fuc(a1-2)Gal(b1-4)Glc
# Outline: as §1
# [23] = molecular target: Fuc(a1-2)Gal(b1-4)Glc6S
# Outline: as §1
# [24] = molecular target: Fuc(a1-2)Gal(b1-4)GlcNAc
# Outline: as §1
# [25] = molecular target: Fuc(a1-2)Gal(b1-4)GlcNAc(b1-2)Man
# Outline: as §1
# [26] = molecular target: Fuc(a1-2)Gal(b1-4)GlcNAc(b1-2)Man(a1-3)[Fuc(a1-2)Gal(b1-4)GlcNAc(b1-2)Man(a1-6)]Man(b1-4)GlcNAc(b1-4)GlcNAc
# Outline: as §1
# [27] = molecular target: Fuc(a1-2)Gal(b1-4)GlcNAc(b1-2)Man(a1-3)[Fuc(a1-2)Gal(b1-4)GlcNAc(b1-2)Man(a1-6)]Man(b1-4)GlcNAc(b1-4)[Fuc(a1-6)]GlcNAc
# Outline: as §1
# [28] = molecular target: Fuc(a1-2)Gal(b1-4)GlcNAc(b1-2)[Fuc(a1-2)Gal(b1-4)GlcNAc(b1-4)]Man(a1-3)[Fuc(a1-2)Gal(b1-4)GlcNAc(b1-2)Man(a1-6)]Man(b1-4)GlcNAc(b1-4)GlcNAc
# Outline: as §1
# [29] = molecular target: Fuc(a1-2)Gal(b1-4)GlcNAc(b1-3)Gal(b1-4)GlcNAc
# Outline: as §1
# [30] = molecular target: Fuc(a1-2)Gal(b1-4)GlcNAc(b1-3)Gal(b1-4)GlcNAc(b1-2)Man(a1-3)[Fuc(a1-2)Gal(b1-4)GlcNAc(b1-3)Gal(b1-4)GlcNAc(b1-2)Man(a1-6)]Man(b1-4)GlcNAc(b1-4)GlcNAc
# Outline: as §1
binder,measurement,setting,value
B1,glycan array binding signal (z-score),[1],-0.352
same,glycan array binding signal (z-score),[2],0.245
same,glycan array binding signal (z-score),[3],-0.461
same,glycan array binding signal (z-score),[4],-0.235
same,glycan array binding signal (z-score),[5],-0.326
same,glycan array binding signal (z-score),[6],-0.053
same,glycan array binding signal (z-score),[7],-0.292
same,glycan array binding signal (z-score),[8],-0.201
same,glycan array binding signal (z-score),[9],0.068
same,glycan array binding signal (z-score),[10],0.285
same,glycan array binding signal (z-score),[11],-0.208
same,glycan array binding signal (z-score),[12],-0.509
same,glycan array binding signal (z-score),[13],0.262
same,glycan array binding signal (z-score),[14],-0.461
same,glycan array binding signal (z-score),[15],0.282
same,glycan array binding signal (z-score),[16],0.314
same,glycan array binding signal (z-score),[17],-0.547
same,glycan array binding signal (z-score),[18],0.066
same,glycan array binding signal (z-score),[19],-0.207
same,glycan array binding signal (z-score),[20],0.069
same,glycan array binding signal (z-score),[21],-0.441
same,glycan array binding signal (z-score),[22],-0.352
same,glycan array binding signal (z-score),[23],-0.314
same,glycan array binding signal (z-score),[24],-0.054
same,glycan array binding signal (z-score),[25],0.22
same,glycan array binding signal (z-score),[26],0.001
same,glycan array binding signal (z-score),[27],-0.468
same,glycan array binding signal (z-score),[28],-0.643
same,glycan array binding signal (z-score),[29],-0.213
same,glycan array binding signal (z-score),[30],0.005
